Experimental data published in article PMC4336329 (PLoS ONE, 2015).
Out of some 310,000 compounds screened, about 2,200 (0.71%) showed an effect of 50% or more. Effects have a minus sign here. The list shows a part of the results.

The compounds below were run against human ether-à-go-go-related gene (hERG) potassium channel (human, UniProt Q12809) (assay: primary screen, population patch clamp on CHO cells stably expressing hERG).
Sequence of human ether-à-go-go-related gene (hERG) potassium channel (Q12809 whole entry, looked up): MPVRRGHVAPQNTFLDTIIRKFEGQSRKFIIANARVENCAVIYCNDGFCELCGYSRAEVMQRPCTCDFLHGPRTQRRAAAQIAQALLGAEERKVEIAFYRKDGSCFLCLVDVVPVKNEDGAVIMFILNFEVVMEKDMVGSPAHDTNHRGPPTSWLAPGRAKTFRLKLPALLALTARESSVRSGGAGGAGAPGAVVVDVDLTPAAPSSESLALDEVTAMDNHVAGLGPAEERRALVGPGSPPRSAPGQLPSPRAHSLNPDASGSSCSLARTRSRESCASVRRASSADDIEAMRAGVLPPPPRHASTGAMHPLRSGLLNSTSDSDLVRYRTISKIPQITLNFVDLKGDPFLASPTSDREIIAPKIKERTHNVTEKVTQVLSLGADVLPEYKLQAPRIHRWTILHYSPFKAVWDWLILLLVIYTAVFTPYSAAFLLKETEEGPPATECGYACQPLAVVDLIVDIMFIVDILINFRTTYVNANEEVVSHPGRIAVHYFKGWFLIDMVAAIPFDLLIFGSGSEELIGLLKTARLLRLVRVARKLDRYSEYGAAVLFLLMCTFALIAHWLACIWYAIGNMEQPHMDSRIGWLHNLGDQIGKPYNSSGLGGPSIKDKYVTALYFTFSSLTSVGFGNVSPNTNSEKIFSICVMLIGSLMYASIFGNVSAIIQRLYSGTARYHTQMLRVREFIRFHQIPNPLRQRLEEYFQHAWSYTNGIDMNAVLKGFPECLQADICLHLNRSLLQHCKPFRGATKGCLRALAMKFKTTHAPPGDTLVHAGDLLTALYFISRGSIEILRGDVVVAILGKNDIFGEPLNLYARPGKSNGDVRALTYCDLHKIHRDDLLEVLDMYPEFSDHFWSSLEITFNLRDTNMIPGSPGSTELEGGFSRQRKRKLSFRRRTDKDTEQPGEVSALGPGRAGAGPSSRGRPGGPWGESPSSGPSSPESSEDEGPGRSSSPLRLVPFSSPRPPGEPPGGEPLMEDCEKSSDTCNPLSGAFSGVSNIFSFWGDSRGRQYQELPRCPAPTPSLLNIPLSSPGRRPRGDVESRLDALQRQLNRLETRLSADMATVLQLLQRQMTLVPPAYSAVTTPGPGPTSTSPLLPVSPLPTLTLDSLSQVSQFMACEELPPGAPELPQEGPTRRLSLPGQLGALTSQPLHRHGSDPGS
With `Cc1ccccc1N1CCN(C2CCCN(C(=O)c3ccc(Cl)s3)C2)CC1` (stereo not drawn) the “hERG current change (%, negative = inhibition) at 1uM” value was 1.61%. For `Cc1ccccc1CSCCNC(=O)COc1ccc(Cl)cc1`, the “hERG current change (%, negative = inhibition) at 1uM” value was 1.64%. With `Cc1ccc2nc(-c3ccco3)c(Nc3ccccc3)n2c1` the “hERG current change (%, negative = inhibition) at 1uM” value was 12.2%. In the case of `CC(C)NC(=O)C(=O)Nc1cc2c3c(c1)C(C)C(=O)N3CCC2` (stereo not drawn), the “hERG current change (%, negative = inhibition) at 1uM” value is reported as 19.1%. `COc1ccc(/C=C/C(=O)Nc2ccc(C)cc2)cc1S(=O)(=O)N1CCOCC1` was tested, and the “hERG current change (%, negative = inhibition) at 1uM” value was -7.51%. In the case of `O=C(NCc1ccco1)C1Cc2cc(Cl)ccc2O1` (stereo not drawn), the “hERG current change (%, negative = inhibition) at 1uM” value is reported as 6.24%. For `O=C(CCn1nc(-c2ccc(Cl)cc2)c2ccccc2c1=O)Nc1cccnc1`, the “hERG current change (%, negative = inhibition) at 1uM” value was -4.9%. `COc1ccc(CC(=O)NCCCc2ccccc2)cc1OC` was tested, and the “hERG current change (%, negative = inhibition) at 1uM” value was 13.6%. For `CC(=O)Nc1ccc(S(=O)(=O)C(C#N)c2nc3ccccc3nc2NCCO)cc1` (stereo not drawn), the “hERG current change (%, negative = inhibition) at 1uM” value was 13.3%. For `CCCSc1nnc(N2C(=O)C(O)=C(C(=O)c3ccco3)C2c2ccccc2F)s1` (stereo not drawn), the “hERG current change (%, negative = inhibition) at 1uM” value was 15.3%. In the case of `COc1ccc(N2CCN(C(=O)CC(NC(N)=O)c3cccc(Oc4ccccc4)c3)CC2)cc1` (stereo not drawn), the “hERG current change (%, negative = inhibition) at 1uM” value is reported as 0.067%. In the case of `Clc1ccc(C2=Nn3c(nnc3-c3n[nH]c4c3CCC4)SC2)cc1`, the “hERG current change (%, negative = inhibition) at 1uM” value is reported as 11%. In the case of `Cc1cc2cc(CNC(=O)c3cccc([N+](=O)[O-])c3)ccc2[nH]1`, the “hERG current change (%, negative = inhibition) at 1uM” value is reported as 1.47%. In the case of `CCOC(=O)C/C(N)=N/NC(=O)c1ccc(Cl)cc1Cl`, the “hERG current change (%, negative = inhibition) at 1uM” value is reported as 9.3%. For `CC(OC(=O)C1=COCCO1)C(=O)Nc1ccc(Oc2ccccc2)cc1` (stereo not drawn), the “hERG current change (%, negative = inhibition) at 1uM” value was -6.24%. For `COc1ccc(-c2cc(C(F)(F)F)c(C#N)c(SCC(=O)O)n2)cc1OC`, the “hERG current change (%, negative = inhibition) at 1uM” value was 14.2%. `COc1ccc(C(=O)Nc2ccccc2N2CCCCC2)cc1[N+](=O)[O-]` was tested, and the “hERG current change (%, negative = inhibition) at 1uM” value was -0.782%. With `CC(=O)Nc1c(C)nn(C(C)=O)c1C` the “hERG current change (%, negative = inhibition) at 1uM” value was 11.8%. In the case of `Cc1ccc(OCC(=O)OCC(=O)NC2CC2)cc1C`, the “hERG current change (%, negative = inhibition) at 1uM” value is reported as 2.95%. In the case of `COc1cc(OC)c(C(=O)COc2ncnc3ccccc23)c(OC)c1`, the “hERG current change (%, negative = inhibition) at 1uM” value is reported as 2.94%. `O=C(CSc1ccccc1)N1CCN(c2ccccc2)CC1` was tested, and the “hERG current change (%, negative = inhibition) at 1uM” value was -11.1%. In the case of `O=C(CSc1nnc(-c2cccs2)o1)OCc1ccccc1`, the “hERG current change (%, negative = inhibition) at 1uM” value is reported as 7.64%. For `CC(=O)N1CCN(c2ccc(NC(=O)c3cccc(C)c3)cc2)CC1`, the “hERG current change (%, negative = inhibition) at 1uM” value was 21.7%. For `Cc1cc(C)cc(OCCNC(=O)c2cc(S(=O)(=O)N3CCOCC3)ccc2F)c1`, the “hERG current change (%, negative = inhibition) at 1uM” value was -8.97%. `CC1(C)Cc2ccccc2-c2nc3n(c(=O)c21)CCCS3` was tested, and the “hERG current change (%, negative = inhibition) at 1uM” value was 8.51%. For `Brc1ccccc1-c1nnc(COc2ncnc3ccccc23)o1`, the “hERG current change (%, negative = inhibition) at 1uM” value was 10%. With `CCCN1C(=O)c2ccc(C(=O)NC3=NCCS3)cc2C1=O` the “hERG current change (%, negative = inhibition) at 1uM” value was 4.29%. With `Cc1cccc(N(CC(=O)NC2CCCCC2)C(=O)c2csnn2)c1` the “hERG current change (%, negative = inhibition) at 1uM” value was 9.5%. In the case of `CCOC(=O)C1C(=O)NC(N2CCOCC2)=NC1C(C)C` (stereo not drawn), the “hERG current change (%, negative = inhibition) at 1uM” value is reported as 9.84%. With `CS(=O)(=O)c1ccc(NCCc2ccc(S(N)(=O)=O)cc2)c([N+](=O)[O-])c1` the “hERG current change (%, negative = inhibition) at 1uM” value was 4.03%. For `CC(=O)c1c(C)n([O-])c2cc(C)ccc2[n+]1=O`, the “hERG current change (%, negative = inhibition) at 1uM” value was 3.04%. With `Cn1c(=O)n(C)c(=O)n(CC(=O)N2CCCCC2)c1=O` the “hERG current change (%, negative = inhibition) at 1uM” value was -2.91%. With `CCOc1ccccc1NC(=O)Nc1cc(S(=O)(=O)N(C)C)ccc1C` the “hERG current change (%, negative = inhibition) at 1uM” value was 14.8%. For `Cn1c(CN2CCOCC2)nc2cc(NC(=O)COc3ccc([N+](=O)[O-])cc3)ccc21`, the “hERG current change (%, negative = inhibition) at 1uM” value was 4.05%. For `Nc1nc(-c2ccco2)nn1S(=O)(=O)c1ccc(Cl)cc1`, the “hERG current change (%, negative = inhibition) at 1uM” value was 12%. With `Cc1ccc(/C=N/NC(=O)CC2N=C(Cc3ccccc3)NNC2=O)cc1` (stereo not drawn) the “hERG current change (%, negative = inhibition) at 1uM” value was 19.2%. For `CN(C)C(=O)Oc1ccc(-c2cn3cc(C(F)(F)F)ccc3n2)cc1`, the “hERG current change (%, negative = inhibition) at 1uM” value was 8.25%. In the case of `CN(c1ccccc1)c1nc(N)c([N+](=O)[O-])c(Nc2cccc(F)c2)n1`, the “hERG current change (%, negative = inhibition) at 1uM” value is reported as 15.4%. For `COc1ccc(CC2S/C(=N/N=C/c3ccccc3O)NC2=O)cc1` (stereo not drawn), the “hERG current change (%, negative = inhibition) at 1uM” value was 13.2%. `O=C(O)c1ccccc1CSc1nnnn1-c1ccccc1` was tested, and the “hERG current change (%, negative = inhibition) at 1uM” value was 8.11%. `CCOC(=O)c1c(NC(=O)CC)sc(C(=O)NC2CCCC2)c1C` was tested, and the “hERG current change (%, negative = inhibition) at 1uM” value was 8.31%. In the case of `CCc1ccc(CN2CCCC(CNS(=O)(=O)c3ccc(OC)cc3)C2)cc1` (stereo not drawn), the “hERG current change (%, negative = inhibition) at 1uM” value is reported as -13.4%. `CN(C)S(=O)(=O)c1cccc(NC(=O)c2cnccn2)c1` was tested, and the “hERG current change (%, negative = inhibition) at 1uM” value was 7.92%. `Cc1nc(N2CCN(S(=O)(=O)c3cccc4nonc34)CC2)c2c3c(sc2n1)CCCC3` was tested, and the “hERG current change (%, negative = inhibition) at 1uM” value was 1.79%. With `CN(CC1CCCN(CCc2ccc(Cl)cc2)C1)C(=O)CC(F)(F)F` (stereo not drawn) the “hERG current change (%, negative = inhibition) at 1uM” value was -38%.
